# ± gives the standard deviation of the averaged measurements. The list shows a part of the results.
# Tested on: PfAP2-G AP2 domain (GST-tagged)
# Assay: gcPBM binding intensity (ln(normalized median fluorescence intensity)); higher = stronger DNA binding
# Procedure, shortened: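 Alexa488 anti-GST antibody, scanned at 488 nm, detected GST-tagged P. falciparum DNA-binding domains that had been expressed in E. coli and incubated for 1 h on an Agilent 4 × 180k array. The array carried primer-extended double-stranded 36-bp intergenic genomic probes and negative controls. Binding intensity is the highest Masliner-normalised natural-log median intensity across replicate spots of either orientation of each probe.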
row,Sequence,gcPBM binding intensity (ln)
1,TTTTGTAATGCTTTTTTTTTTTTTTTTTTTTTTTTT [CACACA_negctrl_site932],11 ± 0.57
2,AAAAGGAGCAAATACAAAAAAATGAACAAAAAAAAA [CACACA_negctrl_site716],9.96 ± 0.042
3,TTTTTCTTTGAATAAATACACACGAGAAATGAAAGT [CACACA_site1688],10.6 ± 0.44
4,ATATAATGAAGTGAATGTACATATAAAATGTAAAAA [XGTACX_site8052],11.1 ± 0.43
5,TTTTTATAAATAATAAGGCGTATGAAAATAAAATAA [TGCATGCA_negctrl_site421],10.4 ± 0.33
6,TCAAAATATCCAAAAGAATAAAGAAAAAAAAAAAGA [CACACA_negctrl_site1377],9.65 ± 0.26
7,ATATAACATTGTTTTGCATGTAAATATTCAATTTTT [TGCATGCA_site758],9.84 ± 0.099
8,TCAAATTTAATCATAACACACATTCACATATGAATT [CACACA_site3199],9.7 ± 0.028
9,ATTGTATAAAAATGTACATGCAATAAATTTAGTTCT [TGCATGCA_site675],11.1 ± 0.63
10,TAAAGCAACTGAAACACACAAATTTTTTTTTTTTTT [CACACA_site7499],9.645 ± 0.064
11,AAACTGAAAAAAATATGTACATATTTATATCTTATA [XGTACX_site3011],11.4 ± 0.88
12,AAAAAAAAAAAACACACACACAAATACAAATACATA [CACACA_site415],9.97 ± 0.33
13,GAAACGTTTTTTCAGTGTACATTTTACCGATTTGTA [XGTACX_site8249],11.2 ± 0.7
14,TAGTATAATATATATTGTACGTTTTAATTGTTTATA [XGTACX_site2731],11 ± 0.79
15,GAGTTTATATTTTAAGCATGCATATGTTATTATTAT [TGCATGCA_site1049],9.83 ± 0.085
16,TATATCAAAAACGAGACATGCATGCCGTTCATTTTG [TGCATGCA_site211],9.52 ± 0.42
17,ATTGTTTCATTAAAATGTACATAAATTGTGTATAAT [XGTACX_site5341],11.2 ± 0.7
18,TTATTAACGGAACTCTGTACTTAAAAAATTTTAGAA [XGTACX_site8787],11.3 ± 0.99
19,TATATAAGAATATATACACACATATCTGTATTTATA [CACACA_site5231],9.79
20,AAAAAAACAGAAAACACACAAATTATCTTATAATTA [CACACA_site6282],9.63 ± 0.11
21,TTTATAAAGGGAAAGGTGCAAAAGGTGAAAGTTTTA,9.95 ± 0.11
22,TATTTTTCTTTTTAAGTGCATGGTTGTATAAAATTT [GTGCAC_site9480],10.3 ± 0.14

row,Sequence,gcPBM binding intensity (ln)
1,TATATATATATTTAATGTACATGTTTATTTTATCAT [XGTACX_site499],11.1 ± 0.5
2,AATAAAATAAAAAAAAATAAAAAAAAAATAAAAAAT [XGTACX_negctrl_site245],9.37 ± 0.11
3,TCTTTTTTGAAGCATTTTGTTTTTTAATAAGTAAAA [TGCATGCA_negctrl_site247],9.92 ± 0.2
4,ATATATATTATATATGCATGCCAAATCTTTATAAAC [TGCATGCA_site1042],9.97 ± 0.071
5,ACAAAAAAATATTTATGTACTTATTATATTTATAAT [XGTACX_site2059],11.4 ± 0.93
6,CTTTTTACTTAATACACACACACACTAAAAAAAAAA [CACACA_site6574],10.5 ± 0.53
7,AAAACTAAATGTTATTCGCACACGGAATTTATTTAA [CACACA_site9221],9.955 ± 0.007
8,ATAAAGAAATTACACACATGCAATGAAAAAAAAAAA [TGCATGCA_site406],9.8 ± 0.071
9,ACATATATATATATATATATATATATATATAGATAG [CACACA_negctrl_site783],10.2 ± 0.57
10,TACTAAGAAGTATTTACACACCAACAAGGCGAAAAA [CACACA_site2944],10.3 ± 0.29
11,ATAAATAATATGTAAACACACAAAAAATAAAAATGA [CACACA_site1178],10.06 ± 0.071
12,ATGTTTGAGCCTAAGGTGCATATAAAAATATATGTG [GTGCAC_site9690],10.4 ± 0.38
13,ATATGTATAAAAATCCGTACATAAGTGTGCGTATAT [XGTACX_site4376],11.2 ± 0.88
14,TTGAGCCTACAAAAGGGTACACATTCAATTTATTTT [XGTACX_site6570],11.3 ± 0.76
15,AAAAAAAAAAGAAATTGTACTTTTTGTTTAATAATT [XGTACX_site4681],11.1 ± 0.64
16,ATATTTTGTTATGAAACACACACATATATATATATA [CACACA_site9216],10.3 ± 0.4
17,ATTATATACAAATAAAGTACATAAACAAATTCAGAA [XGTACX_site1187],11.4 ± 0.84
18,TATTTCAAACTGTTCTCACACACGAAATTAGAAATG [CACACA_site611],10.2 ± 0.24
19,TTTTGAATATGGATCTTATATATATTAAATAAATAA [CACACA_negctrl_site344],9.79 ± 0.12
20,ATTCCAGAAATATATTAACAAGGAAAATATAAAAAT [CACACA_negctrl_site343],9.89 ± 0.042
21,AAGAAGAATAGGCGTTGTACGGAATGTAGTAGAGTT [XGTACX_site2430],10.9 ± 0.55
22,ATAAGGTTACAACAAACACACAAAGGAATATACGCA [CACACA_site4090],10.18 ± 0.099
